Reference: patent publication US11407811B2, “Fusion protein, preparation method therefor and use thereof” (JIANGSU RONGTAI BIOTECH CO., LTD., priority 2017, dated 2022)
Marks after values point to notes of the source that are not given here.

Experiments:
[1] = test system: human retinal vascular endothelial cell (HRCEC); assay: MTT assay, proliferation of human retinal vascular endothelial cell (HRCEC); type: cell-based; conditions: 48 hours
Procedure: The activity of the integrin blocker polypeptide to inhibit proliferation of human retinal vascular endothelial cells was examined by MTT assay. HRCEC cells were cultured in a 5% CO2 incubator at 37° C. to a density of 90% or more, and then collected by trypsinization. The cells were resuspended in the culture liquid and counted under a microscope. The cell concentration was adjusted to 3.0×10^4 cells/mL. The cell suspension was inoculated into a 96-well plate at 100 μL per well and cultured in a 5% CO2 incubator at 37° C. overnight. […] After the cells were fully adhered, each dilution was added to a 96-well plate at 100 μL per well, respectively. […] 20 μL of 5 mg/mL MTT was added to each well of a 96-well plate, and incubation was continued for 4 hours. The medium was aspirated and 100 μL of DMSO was added per well for dissolution. The absorbance was measured at 570 nm with a microplate reader with a reference wavelength of 630 nm, and the proliferation inhibition (PI) was calculated. The formula was as follows: […]
(§1) where Ntest is the OD value of the test group and Ncontrol is the OD value of the blank control group.
The test was repeated 5 times independently. The results obtained from the test were calculated as mean±SD, and statistical t-test was performed. P<0.05 was considered as significant difference, and P<0.01 was considered as extremely significant difference.

[2] = test system: retinal blood vessels in OIR mice; assay: Retinal blood vessels in OIR mice; type: in vivo; conditions: dose 64 μg, injected into the vitreous body on day 13, evaluated on day 17
From the text: Establishment of the OIR model: young mice and their mothers were exposed to 75% hyperoxic environment from day 7 to day 12 after birth of C57/B16 mice so that capillaries in the central retina rapidly disappeared. On day 12, the mice were returned to indoor air and the retinal blood vessels exposed to hyperoxia rapidly disappeared, which caused extensive abnormal neovascularization, and the central part of the retina remained largely avascular for a long time. After the blood vessels disappeared completely, the fusion protein (administration group, the doses of fusion protein I, protein II, protein III, protein IV, and protein V were all 64 μg) or physiological saline (negative group) was injected into the vitreous body on day 13. Retinal vessels were evaluated on day 17 (labeled as unclosed vessels, […] of Texas Red-labeled tomato lectin was injected into the left ventricle and cycled for 5 minutes).

[3] = test system: melanoma cell line B16F10; assay: MTT assay, proliferation of melanoma cell B16F10; type: cell-based
Procedure: The MTT assay was used to detect the inhibitory effect of the integrin blocker fusion protein obtained in Example 1 on the proliferation of various tumor cells, including melanoma cell B16F10, gastric cancer cell MGC-803, lung cancer cell A549, liver cancer cell Hep-G2, breast cancer cell MDA-MB-231, colon cancer cell HCT-116, human glioma U87, and cervical cancer cell Hela.
The tumor cells were cultured in a 5% CO2 incubator at 37° C. to a density of 90% or more, and collected by trypsinization. The cells were resuspended in the culture liquid and counted under a microscope. The cell concentration was adjusted to 3.0×10^4 cells/mL. The cell suspension was inoculated into a 96-well plate at 100 μL per well and cultured overnight in a 5% CO2 incubator at 37° C. […] After the cells were fully adhered, each dilution was added to a 96-well plate at 100 μL per well, respectively. […] 20 μL of 5 mg/mL MTT was added to each well of a 96-well plate, and incubation was continued for 4 hours. The medium was aspirated and 100 μL of DMSO per well were added to dissolve. The absorbance was measured at 570 nm with a microplate reader with a reference wavelength of 630 nm, and the proliferation inhibition (PI) was calculated. The formula is as follows: […]
as §1
The test was repeated 5 times independently. The results obtained from the test were calculated as mean±SD, and statistical t-test was performed. P<0.05 was considered as a significant difference, and P<0.01 was considered as an extremely significant difference.

| Molecule | A570 nm/A630 nm ([1]; 1 μg/mL) | PI ([1]; 1 μg/mL) [%] | A570 nm/A630 nm ([1]; 2 μg/mL) | PI ([1]; 2 μg/mL) [%] | A570 nm/A630 nm ([1]; 4 μg/mL) | PI ([1]; 4 μg/mL) [%] | A570 nm/A630 nm ([1]; 8 μg/mL) | PI ([1]; 8 μg/mL) [%] | A570 nm/A630 nm ([1]; 16 μg/mL) | PI ([1]; 16 μg/mL) [%] | A570 nm/A630 nm ([1]; 32 μg/mL) | PI ([1]; 32 μg/mL) [%] | A570 nm/A630 nm ([1]; 64 μg/mL) | PI ([1]; 64 μg/mL) [%] | A570 nm/A630 nm ([1]; 128 μg/mL) | PI ([1]; 128 μg/mL) [%] | A570 nm/A630 nm ([1]; 256 μg/mL) | PI ([1]; 256 μg/mL) [%] | Area (mm^2) occupied by neovascular clusters [2] | Reduce (%) [2] [%] | also measured |
| --- | --- | --- | --- | --- | --- | --- | --- | --- | --- | --- | --- | --- | --- | --- | --- | --- | --- | --- | --- | --- | --- |
| Protein III: mIgG4-Fc linked to antiangiogenesis polypeptide EDSM-Y via a flexible linker; SEQ ID NO: 19 (protein) [sequence of human IgG4 Fc with S228P F234A L235A (EU numbers) and a few adjoining residues not given]GGGGSGGGGSGGGGSFQPVLHLVALNSPLSGGMRGIRGADFQCFQQARAVGLAGTFRAGGGGRGD | 1.1125 ± 0.0403 | 17.42 | 0.9945 ± 0.0375 | 26.17 | 0.9168 ± 0.0362 | 31.94 | 0.8997 ± 0.0358 | 33.21 | 0.8347 ± 0.0274 | 38.04 | 0.7451 ± 0.0280 | 44.69 | 0.5974 ± 0.0193 | 55.65 | 0.3789 ± 0.0238 | 71.87 | 0.1453 ± 0.0247 | 89.21 | 0.104 ± 0.041* mm^2 | 50.71 | Reduce (%) ([2]; listed as protein III): 50.71%; A570 nm/A630 nm ([3]; dose 1 μg/mL): 1.1086 ± 0.0151; PI (%) ([3]; dose 1 μg/mL): 11.57%; A570 nm/A630 nm ([3]; dose 2 μg/mL): 1.0009 ± 0.0772; PI (%) ([3]; dose 2 μg/mL): 20.16%; A570 nm/A630 nm ([3]; dose 4 μg/mL): 0.8592 ± 0.0637; PI (%) ([3]; dose 4 μg/mL): 31.47%; A570 nm/A630 nm ([3]; dose 8 μg/mL): 0.6961 ± 0.0412; PI (%) ([3]; dose 8 μg/mL): 44.48%; A570 nm/A630 nm ([3]; dose 16 μg/mL): 0.5219 ± 0.0775; PI (%) ([3]; dose 16 μg/mL): 58.37%; A570 nm/A630 nm ([3]; dose 32 μg/mL): 0.4327 ± 0.0579; PI (%) ([3]; dose 32 μg/mL): 65.49%; A570 nm/A630 nm ([3]; dose 64 μg/mL): 0.3029 ± 0.0284; PI (%) ([3]; dose 64 μg/mL): 75.84%; A570 nm/A630 nm ([3]; dose 128 μg/mL): 0.1944 ± 0.0493; PI (%) ([3]; dose 128 μg/mL): 84.49%; A570 nm/A630 nm ([3]; dose 256 μg/mL): 0.0818 ± 0.0302; PI (%) ([3]; dose 256 μg/mL): 93.48% |
| Protein I: IgG1-Fc linked to antiangiogenesis polypeptide EDSM-Y via a flexible linker; SEQ ID NO: 15 (protein) [sequence of human IgG1 Fc not given]GGGGSGGGGSGGGGSFQPVLHLVALNSPLSGGMRGIRGADFQCFQQARAVGLAGTFRAGGGGRGD | 1.1856 ± 0.0395 | 11.99 | 1.0024 ± 0.0401 | 25.59 | 0.9248 ± 0.0383 | 31.35 | 0.9014 ± 0.0368 | 33.09 | 0.8314 ± 0.0344 | 38.28 | 0.7284 ± 0.0299 | 45.93 | 0.5879 ± 0.0327 | 56.36 | 0.3849 ± 0.0311 | 71.43 | 0.1488 ± 0.0296 | 88.95 | 0.101 ± 0.036* mm^2 | 52.13 | Reduce (%) ([2]; listed as fusion protein I): 52.13%; A570 nm/A630 nm ([3]; dose 1 μg/mL): 1.0974 ± 0.0157; PI (%) ([3]; dose 1 μg/mL): 12.47%; A570 nm/A630 nm ([3]; dose 2 μg/mL): 1.0013 ± 0.0781; PI (%) ([3]; dose 2 μg/mL): 20.13%; A570 nm/A630 nm ([3]; dose 4 μg/mL): 0.8603 ± 0.0640; PI (%) ([3]; dose 4 μg/mL): 31.38%; A570 nm/A630 nm ([3]; dose 8 μg/mL): 0.6959 ± 0.0419; PI (%) ([3]; dose 8 μg/mL): 44.49%; A570 nm/A630 nm ([3]; dose 16 μg/mL): 0.5221 ± 0.0778; PI (%) ([3]; dose 16 μg/mL): 58.36%; A570 nm/A630 nm ([3]; dose 32 μg/mL): 0.4330 ± 0.0579; PI (%) ([3]; dose 32 μg/mL): 65.46%; A570 nm/A630 nm ([3]; dose 64 μg/mL): 0.3029 ± 0.0286; PI (%) ([3]; dose 64 μg/mL): 75.84%; A570 nm/A630 nm ([3]; dose 128 μg/mL): 0.1942 ± 0.0450; PI (%) ([3]; dose 128 μg/mL): 84.51%; A570 nm/A630 nm ([3]; dose 256 μg/mL): 0.0817 ± 0.0301; PI (%) ([3]; dose 256 μg/mL): 93.48% |
